{"source": "paper PMC4336329", "about": "(PLoS ONE, 2015)", "note": "Hit rate of the full screen: of about 310,000 compounds, about 14,000 (4.5%) showed an effect of 50% or more. Effects have a minus sign here. This is one part of the list.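 Note: peak tail current of the secondary pulse compared with the same well before compound.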"}
{"molecular_target": "human ether-à-go-go-related gene (hERG) potassium channel (human, UniProt Q12809)", "sequence (Q12809 whole entry, looked up)": "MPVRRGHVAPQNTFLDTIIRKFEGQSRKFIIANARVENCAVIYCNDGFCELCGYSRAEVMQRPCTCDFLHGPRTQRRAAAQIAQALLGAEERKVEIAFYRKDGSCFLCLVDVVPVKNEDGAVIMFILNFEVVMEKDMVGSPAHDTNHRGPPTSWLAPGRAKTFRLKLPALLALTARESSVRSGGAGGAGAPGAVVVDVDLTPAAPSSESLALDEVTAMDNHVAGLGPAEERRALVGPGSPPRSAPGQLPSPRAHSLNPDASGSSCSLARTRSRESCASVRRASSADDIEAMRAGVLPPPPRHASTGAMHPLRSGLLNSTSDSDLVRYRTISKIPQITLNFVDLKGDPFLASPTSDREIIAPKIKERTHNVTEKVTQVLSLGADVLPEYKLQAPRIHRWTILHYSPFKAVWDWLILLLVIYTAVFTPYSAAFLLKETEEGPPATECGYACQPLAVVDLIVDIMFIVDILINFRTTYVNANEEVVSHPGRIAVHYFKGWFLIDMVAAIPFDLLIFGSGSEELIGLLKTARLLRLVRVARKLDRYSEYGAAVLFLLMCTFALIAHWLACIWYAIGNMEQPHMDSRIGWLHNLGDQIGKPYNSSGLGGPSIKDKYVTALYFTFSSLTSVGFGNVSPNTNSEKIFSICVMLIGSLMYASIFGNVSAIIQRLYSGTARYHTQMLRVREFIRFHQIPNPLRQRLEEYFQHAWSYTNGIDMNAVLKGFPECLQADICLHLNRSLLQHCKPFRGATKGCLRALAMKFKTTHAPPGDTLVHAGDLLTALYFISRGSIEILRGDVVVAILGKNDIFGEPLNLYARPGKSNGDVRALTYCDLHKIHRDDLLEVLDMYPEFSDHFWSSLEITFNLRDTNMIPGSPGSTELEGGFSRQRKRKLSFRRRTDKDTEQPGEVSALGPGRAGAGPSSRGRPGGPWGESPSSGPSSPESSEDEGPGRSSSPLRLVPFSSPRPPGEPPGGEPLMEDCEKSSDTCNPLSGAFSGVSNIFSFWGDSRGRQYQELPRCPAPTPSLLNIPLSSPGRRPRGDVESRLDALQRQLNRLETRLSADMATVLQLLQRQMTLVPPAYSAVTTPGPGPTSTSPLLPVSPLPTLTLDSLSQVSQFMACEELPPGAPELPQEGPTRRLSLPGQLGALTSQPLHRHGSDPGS", "test": "primary screen, population patch clamp on CHO cells stably expressing hERG", "units": {"hERG current change (%, negative = inhibition) at 10uM": "%"}}
{"smiles": "COc1ccc(CCC(=O)NC2CCCN(Cc3ccc(Cl)cc3)C2)cc1OC", "note": "(stereo not shown)", "hERG current change (%, negative = inhibition) at 10uM": -48.2}
{"smiles": "O=C(CCc1ccccc1)Nc1cc2c(cc1Cl)OCCO2", "hERG current change (%, negative = inhibition) at 10uM": -7.19}
{"smiles": "COC(=O)C1=C(NC(=O)C(C)(C)C)CCS1", "hERG current change (%, negative = inhibition) at 10uM": -4.14}
{"smiles": "O=C(Nc1ccc(S(=O)(=O)Nc2nccs2)cc1)c1cnc(Cl)c(Cl)c1", "hERG current change (%, negative = inhibition) at 10uM": -30.8}
{"smiles": "O=C(CNC(=O)COc1ccccc1)NCc1cccnc1", "hERG current change (%, negative = inhibition) at 10uM": 6.65}
{"smiles": "COc1ccc(-c2sc3ccccc3c2C#CCCO)cc1", "hERG current change (%, negative = inhibition) at 10uM": 29.6}
{"smiles": "CC(C)(C)c1ccc(C(=O)O[C@H]2[C@H](Cc3ccccc3)NS(=O)(=O)[C@H]3C[C@@H]4C=C[C@]23O4)cc1", "hERG current change (%, negative = inhibition) at 10uM": 21.2}
{"smiles": "CN(c1ccccc1)c1ccc([N+](=O)[O-])c2nonc12", "hERG current change (%, negative = inhibition) at 10uM": 4.39}
{"smiles": "Cc1cccc(C(=O)CC(=O)c2cc(Cl)ccc2O)c1", "hERG current change (%, negative = inhibition) at 10uM": 10.7}
{"smiles": "O=C(CCc1nnc(Cc2cccc(C(F)(F)F)c2)o1)NCC(F)(F)F", "hERG current change (%, negative = inhibition) at 10uM": -6.02}
{"smiles": "OCCOCCn1c(CCNc2nc(-c3ccc(F)cc3)cs2)nc2cc(C(F)(F)F)ccc21", "hERG current change (%, negative = inhibition) at 10uM": -61.1}
{"smiles": "O=c1cc(CN2CCCCCC2)nc2sccn12", "hERG current change (%, negative = inhibition) at 10uM": -13.3}
{"smiles": "O=C(NCCN1CCOCC1)c1cccc(S(=O)(=O)NCc2ccccc2)c1", "hERG current change (%, negative = inhibition) at 10uM": -18.4}
{"smiles": "O=C(CNS(=O)(=O)c1ccc(Br)cc1)NCc1cccnc1", "hERG current change (%, negative = inhibition) at 10uM": 0.275}
{"smiles": "CCN1CCN(C(=O)c2cc(S(=O)(=O)N3CCCCC3)ccc2Cl)CC1", "hERG current change (%, negative = inhibition) at 10uM": 8.18}
{"smiles": "COc1ccc(C(=O)Nc2cccc(C)c2)cc1S(=O)(=O)N1CCOCC1", "hERG current change (%, negative = inhibition) at 10uM": -16}
{"smiles": "COc1cccc(C2CC(C(F)(F)F)n3nc(C(=O)NCc4cccnc4)cc3N2)c1", "note": "(stereo not shown)", "hERG current change (%, negative = inhibition) at 10uM": -21.1}
{"smiles": "COc1cc2c(cc1OC)C(C(=O)Nc1ccc3c(c1)OCCO3)C1c3ccccc3CCN1C2=O", "note": "(stereo not shown)", "hERG current change (%, negative = inhibition) at 10uM": -9.15}
{"smiles": "COc1ccccc1OCC(O)Cn1c(=N)n(CCN2CCCCC2)c2ccccc21.Cl", "note": "(stereo not shown)", "hERG current change (%, negative = inhibition) at 10uM": -65.4}
{"smiles": "OC(Cn1c2ccccc2c2ccccc21)C[n+]1cccc2ccccc21.[O-][Cl+3]([O-])([O-])[O-]", "note": "(stereo not shown)", "hERG current change (%, negative = inhibition) at 10uM": -33.5}
{"smiles": "CSCCC(C(=O)OCC(=O)c1ccc(C)c(C)c1)N1C(=O)c2cc(Cl)c(Cl)cc2C1=O", "note": "(stereo not shown)", "hERG current change (%, negative = inhibition) at 10uM": 3.62}
{"smiles": "O=C(Nc1nc2ccccc2n1CCN1CCCCC1)C1CCCCC1", "hERG current change (%, negative = inhibition) at 10uM": -61.2}
{"smiles": "COc1ccc(NS(=O)(=O)c2cc3c(cc2C)N(C)CCO3)c(OC)c1", "hERG current change (%, negative = inhibition) at 10uM": 1.28}
{"smiles": "Cc1nn(C)c(C)c1NC(=O)CSc1nc(-c2ccccc2Cl)nc2c1cnn2-c1ccccc1", "hERG current change (%, negative = inhibition) at 10uM": -0.273}
{"smiles": "COc1ccc(CCNC(=O)c2c(C)nc3ccccn23)cc1OC", "hERG current change (%, negative = inhibition) at 10uM": -64.3}
{"smiles": "Cn1nc(C(=O)Nc2ccc3c(c2)OCO3)c2ccccc2c1=O", "hERG current change (%, negative = inhibition) at 10uM": 7.17}
{"smiles": "Cc1ccc(C2=Nc3ccccc3N=C(c3ccco3)C2)c(O)c1", "hERG current change (%, negative = inhibition) at 10uM": 11}
{"smiles": "Nc1cccnc1S(=O)(=O)c1ccccc1", "hERG current change (%, negative = inhibition) at 10uM": 13.8}
{"smiles": "COc1ccc(OC)c(NC(=O)c2cnn(-c3ccccc3)c2C)c1", "hERG current change (%, negative = inhibition) at 10uM": 2.89}
{"smiles": "CCOC(=O)N1CCN(C(=O)CN(Cc2ccccc2)S(C)(=O)=O)CC1", "hERG current change (%, negative = inhibition) at 10uM": 3.92}
{"smiles": "O=C(CCC(=O)N1C[C@H]2C[C@@H](C1)c1cccc(=O)n1C2)NCc1ccc(F)cc1", "hERG current change (%, negative = inhibition) at 10uM": 13.5}
{"smiles": "Cc1ccccc1SCCNC(=O)c1ccccc1Br", "hERG current change (%, negative = inhibition) at 10uM": -6.53}
{"smiles": "Cc1ccc(C2C(N)C(=O)N2c2ccc(C)cc2)cc1", "note": "(stereo not shown)", "hERG current change (%, negative = inhibition) at 10uM": -5.54}
{"smiles": "COc1ccccc1NC(=O)Cn1cnc2c(cnn2-c2ccc(C)c(C)c2)c1=O", "hERG current change (%, negative = inhibition) at 10uM": 12.1}
{"smiles": "Cc1cc(C)nc(N2CCCC(C(=O)NCc3ccccc3)C2)n1", "note": "(stereo not shown)", "hERG current change (%, negative = inhibition) at 10uM": 7.35}
{"smiles": "Cc1cccc(N2CCN(C(=S)Nc3ccc4nc(N5CCOCC5)cc(C)c4c3)CC2C)c1", "note": "(stereo not shown)", "hERG current change (%, negative = inhibition) at 10uM": 3.34}
{"smiles": "CCc1nc(Sc2nnnn2-c2ccccc2)c2c3c(sc2n1)CCCC3", "hERG current change (%, negative = inhibition) at 10uM": -13.8}
{"smiles": "CNc1nc(Cl)c(SC)c(NCc2ccc(F)cc2)n1", "hERG current change (%, negative = inhibition) at 10uM": 12.8}
{"smiles": "OC1COC(O)C(O)C1O", "note": "(stereo not shown)", "hERG current change (%, negative = inhibition) at 10uM": 4.35}
{"smiles": "COc1ccccc1CCNC(=O)C(=O)NCC1OCCN1S(=O)(=O)c1cc(F)ccc1F", "note": "(stereo not shown)", "hERG current change (%, negative = inhibition) at 10uM": -14.6}
{"smiles": "C=CCn1c(COc2cccc(C)c2)nnc1SCC(=O)NC(=O)NCc1ccco1", "hERG current change (%, negative = inhibition) at 10uM": 12.1}
{"smiles": "O=C(O)C1CCCCC1C(=O)Nc1ccccc1Cl", "note": "(stereo not shown)", "hERG current change (%, negative = inhibition) at 10uM": 15.1}
{"smiles": "CC1CCCC(NC(=O)CN2C(=O)c3cccnc3Oc3ccc(Cl)cc32)C1C", "note": "(stereo not shown)", "hERG current change (%, negative = inhibition) at 10uM": -4.33}
